# Assay results as given in the supplement of paper PMC8728848.
# The list shows a part of the results.
# Columns and labels:
# Test in all cases: glycan array binding signal (z-score within array); higher = stronger binding
# Conditions in all cases: glycan notation: IUPAC condensed, linker removed; mutation: I144G
# [1] = biological target: Neu5Ac(a2-6)Gal(b1-4)GlcNAc(b1-3)Gal(b1-4)GlcNAc(b1-3)Gal(b1-4)GlcNAc
# Summary of the method: (§1)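 The binding signal is a Z-score computed within each array. Data were drawn from 3228 arrays in the Consortium for Functional Glycomics database, restricted to those with a known protein sequence. Scores were averaged over arrays of the same protein sequence at different concentrations or buffers, and over linkers, and negative values can be taken as non-binding.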
# [2] = biological target: Neu5Ac(a2-6)Gal(b1-4)GlcNAc(b1-3)Gal(b1-4)GlcNAc(b1-3)Gal(b1-4)GlcNAc(b1-2)Man(a1-3)[Neu5Ac(a2-6)Gal(b1-4)GlcNAc(b1-3)Gal(b1-4)GlcNAc(b1-3)Gal(b1-4)GlcNAc(b1-2)Man(a1-6)]GalNAc
# Summary of the method: as §1
# [3] = biological target: Neu5Ac(a2-6)Gal(b1-4)GlcNAc(b1-3)Gal(b1-4)GlcNAc(b1-3)GalNAc
# Summary of the method: as §1
# [4] = biological target: Neu5Ac(a2-6)Gal(b1-4)GlcNAc(b1-3)Gal(b1-4)GlcNAc(b1-3)[Neu5Ac(a2-6)Gal(b1-4)GlcNAc(b1-3)Gal(b1-4)GlcNAc(b1-6)]GalNAc
# Summary of the method: as §1
# [5] = biological target: Neu5Ac(a2-6)Gal(b1-4)GlcNAc(b1-3)Gal(b1-4)GlcNAc(b1-6)[Gal(b1-3)]GalNAc
# Summary of the method: as §1
# [6] = biological target: Neu5Ac(a2-6)Gal(b1-4)GlcNAc(b1-3)Gal(b1-4)[Fuc(a1-3)]GlcNAc(b1-3)Gal(b1-4)[Fuc(a1-3)]GlcNAc
# Summary of the method: as §1
# [7] = biological target: Neu5Ac(a2-6)Gal(b1-4)GlcNAc(b1-3)GalNAc
# Summary of the method: as §1
# [8] = biological target: Neu5Ac(a2-6)Gal(b1-4)GlcNAc(b1-3)[Neu5Ac(a2-6)Gal(b1-4)GlcNAc(b1-6)]GalNAc
# Summary of the method: as §1
# [9] = biological target: Neu5Ac(a2-6)Gal(b1-4)GlcNAc(b1-6)GalNAc
# Summary of the method: as §1
# [10] = biological target: Neu5Ac(a2-6)Gal(b1-4)GlcNAc(b1-6)[Gal(b1-3)GlcNAc(b1-3)]Gal(b1-4)Glc
# Summary of the method: as §1
# [11] = biological target: Neu5Ac(a2-6)Gal(b1-4)GlcNAc(b1-6)[Gal(b1-3)]GalNAc
# Summary of the method: as §1
# [12] = biological target: Neu5Ac(a2-6)Gal(b1-4)GlcNAc6S
# Summary of the method: as §1
# Neu5Ac(a2-6)GalNAc = biological target: Neu5Ac(a2-6)GalNAc
# Summary of the method: as §1
# [13] = biological target: Neu5Ac(a2-6)GalNAc(b1-4)GlcNAc
# Summary of the method: as §1
# [14] = biological target: Neu5Ac(a2-6)GalNAc(b1-4)GlcNAc6S
# Summary of the method: as §1
# [15] = biological target: Neu5Ac(a2-6)GlcNAc(b1-4)GlcNAc
# Summary of the method: as §1
# [16] = biological target: Neu5Ac(a2-6)GlcNAc(b1-4)GlcNAc(b1-4)GlcNAc
# Summary of the method: as §1
# Neu5Ac(a2-8)Neu5Ac = biological target: Neu5Ac(a2-8)Neu5Ac
# Summary of the method: as §1
# [17] = biological target: Neu5Ac(a2-8)Neu5Ac(a2-3)Gal(b1-3)GalNAc(b1-4)[Neu5Ac(a2-3)]Gal(b1-4)Glc
# Summary of the method: as §1
# [18] = biological target: Neu5Ac(a2-8)Neu5Ac(a2-3)Gal(b1-3)GalNAc(b1-4)[Neu5Ac(a2-8)Neu5Ac(a2-3)]Gal(b1-4)Glc
# Summary of the method: as §1
# [19] = biological target: Neu5Ac(a2-8)Neu5Ac(a2-3)Gal(b1-4)Glc
# Summary of the method: as §1
# [20] = biological target: Neu5Ac(a2-8)Neu5Ac(a2-3)Gal(b1-4)GlcNAc
# Summary of the method: as §1
# [21] = biological target: Neu5Ac(a2-8)Neu5Ac(a2-3)[Gal(b1-3)GalNAc(b1-4)]Gal(b1-4)Glc
# Summary of the method: as §1
# [22] = biological target: Neu5Ac(a2-8)Neu5Ac(a2-3)[GalNAc(b1-4)]Gal(b1-4)Glc
# Summary of the method: as §1
# [23] = biological target: Neu5Ac(a2-8)Neu5Ac(a2-8)Neu5Ac
# Summary of the method: as §1
# [24] = biological target: Neu5Ac(a2-8)Neu5Ac(a2-8)Neu5Ac(a2-3)Gal(b1-4)Glc
# Summary of the method: as §1
# [25] = biological target: Neu5Ac(a2-8)Neu5Ac(a2-8)Neu5Ac(a2-3)[Gal(b1-3)GalNAc(b1-4)]Gal(b1-4)Glc
# Summary of the method: as §1
# [26] = biological target: Neu5Ac(a2-8)Neu5Ac(a2-8)Neu5Ac(a2-3)[GalNAc(b1-4)]Gal(b1-4)Glc
# Summary of the method: as §1
# [27] = biological target: Neu5Ac(a2-8)Neu5Ac(a2-8)Neu5Ac(a2-8)Neu5Ac(a2-3)[GalNAc(b1-4)]Gal(b1-4)Glc
# Summary of the method: as §1
# [28] = biological target: Neu5Ac(a2-8)Neu5Gc(a2-3)Gal(b1-4)GlcNAc
# Summary of the method: as §1
# [29] = biological target: Neu5Ac(b2-6)Gal(b1-4)GlcNAc
# Summary of the method: as §1
# Neu5Ac(b2-6)GalNAc = biological target: Neu5Ac(b2-6)GalNAc
# Summary of the method: as §1
# [30] = biological target: Neu5Ac9Ac(a2-3)Gal(b1-3)GlcNAc
# Summary of the method: as §1
# [31] = biological target: Neu5Ac9Ac(a2-3)Gal(b1-4)GlcNAc
# Summary of the method: as §1
# [32] = biological target: Neu5Ac9Ac(a2-6)Gal(b1-4)GlcNAc
# Summary of the method: as §1
# [33] = biological target: Neu5Gc(a2-3)Gal(b1-3)GlcNAc
# Summary of the method: as §1
# [34] = biological target: Neu5Gc(a2-3)Gal(b1-3)[Fuc(a1-4)]GlcNAc
# Summary of the method: as §1
# Neu5Gc(a2-3)Gal(b1-4)Glc = biological target: Neu5Gc(a2-3)Gal(b1-4)Glc
# Summary of the method: as §1
# [35] = biological target: Neu5Gc(a2-3)Gal(b1-4)GlcNAc
# Summary of the method: as §1
# [36] = biological target: Neu5Gc(a2-3)Gal(b1-4)GlcNAc(b1-3)Gal(b1-4)GlcNAc(b1-2)Man(a1-3)[Neu5Gc(a2-3)Gal(b1-4)GlcNAc(b1-3)Gal(b1-4)GlcNAc(b1-2)Man(a1-6)]Man(b1-4)GlcNAc(b1-4)GlcNAc
# Summary of the method: as §1
# [37] = biological target: Neu5Gc(a2-3)Gal(b1-4)[Fuc(a1-3)]GlcNAc
# Summary of the method: as §1
# [38] = biological target: Neu5Gc(a2-6)Gal(b1-4)GlcNAc
# Summary of the method: as §1
# Neu5Gc(a2-6)GalNAc = biological target: Neu5Gc(a2-6)GalNAc
# Summary of the method: as §1
# [39] = biological target: Neu5Gc(a2-8)Neu5Ac(a2-3)Gal(b1-4)GlcNAc
# Summary of the method: as §1
# [40] = biological target: Neu5Gc(a2-8)Neu5Gc(a2-3)Gal(b1-4)GlcNAc
# Summary of the method: as §1
binder,measurement,setting,value
"rAAL-I144G (Agrocybe aegerita), Q6WY08 (protein) MQGVNIYNISAGTSVDLAAPVTTGDIVTFFSSALNLNAGAGNPNNTTLNLFAENGAYLLHIAFRLQENVIIFNSRQPDGPWLVEQRVSDVANQFAGIDGKAMVTVFDHGDKYQVVINEKTVIQYTKQISGLTLSLSYNATEETSGFSTVVEAVTYTGLALEHHHHHH",glycan array binding signal (z-score),[1],-0.095
same,glycan array binding signal (z-score),[2],0.006
same,glycan array binding signal (z-score),[3],-0.106
same,glycan array binding signal (z-score),[4],-0.095
same,glycan array binding signal (z-score),[5],-0.142
same,glycan array binding signal (z-score),[6],-0.095
same,glycan array binding signal (z-score),[7],-0.16
same,glycan array binding signal (z-score),[8],0.049
same,glycan array binding signal (z-score),[9],-0.143
same,glycan array binding signal (z-score),[10],-0.106
same,glycan array binding signal (z-score),[11],-0.097
same,glycan array binding signal (z-score),[12],0.002
same,glycan array binding signal (z-score),Neu5Ac(a2-6)GalNAc,-0.167
same,glycan array binding signal (z-score),[13],-0.194
same,glycan array binding signal (z-score),[14],-0.107
same,glycan array binding signal (z-score),[15],-0.122
same,glycan array binding signal (z-score),[16],-0.151
same,glycan array binding signal (z-score),Neu5Ac(a2-8)Neu5Ac,-0.09
same,glycan array binding signal (z-score),[17],1.99
same,glycan array binding signal (z-score),[18],-0.16
same,glycan array binding signal (z-score),[19],-0.139
same,glycan array binding signal (z-score),[20],-0.083
same,glycan array binding signal (z-score),[21],-0.16
same,glycan array binding signal (z-score),[22],-0.048
same,glycan array binding signal (z-score),[23],-0.155
same,glycan array binding signal (z-score),[24],-0.026
same,glycan array binding signal (z-score),[25],0.014
same,glycan array binding signal (z-score),[26],-0.089
same,glycan array binding signal (z-score),[27],-0.147
same,glycan array binding signal (z-score),[28],-0.114
same,glycan array binding signal (z-score),[29],-0.137
same,glycan array binding signal (z-score),Neu5Ac(b2-6)GalNAc,-0.135
same,glycan array binding signal (z-score),[30],-0.174
same,glycan array binding signal (z-score),[31],-0.107
same,glycan array binding signal (z-score),[32],-0.153
same,glycan array binding signal (z-score),[33],-0.165
same,glycan array binding signal (z-score),[34],-0.072
same,glycan array binding signal (z-score),Neu5Gc(a2-3)Gal(b1-4)Glc,-0.166
same,glycan array binding signal (z-score),[35],-0.001
same,glycan array binding signal (z-score),[36],0.998
same,glycan array binding signal (z-score),[37],-0.174
same,glycan array binding signal (z-score),[38],-0.134
same,glycan array binding signal (z-score),Neu5Gc(a2-6)GalNAc,-0.086
same,glycan array binding signal (z-score),[39],-0.169
same,glycan array binding signal (z-score),[40],-0.122
